From patent EP4786499A1 (Guangdong Fapon Biopharma Inc., dated 2026)

Legend:
[1] = target: T1, human IL10R (IL-10 receptor on the H_IL10 Reporter 293 Cell Line) (human, UniProt Q13651 22-578); experiment: cell-based or functional assay
T1 sequence (looked up): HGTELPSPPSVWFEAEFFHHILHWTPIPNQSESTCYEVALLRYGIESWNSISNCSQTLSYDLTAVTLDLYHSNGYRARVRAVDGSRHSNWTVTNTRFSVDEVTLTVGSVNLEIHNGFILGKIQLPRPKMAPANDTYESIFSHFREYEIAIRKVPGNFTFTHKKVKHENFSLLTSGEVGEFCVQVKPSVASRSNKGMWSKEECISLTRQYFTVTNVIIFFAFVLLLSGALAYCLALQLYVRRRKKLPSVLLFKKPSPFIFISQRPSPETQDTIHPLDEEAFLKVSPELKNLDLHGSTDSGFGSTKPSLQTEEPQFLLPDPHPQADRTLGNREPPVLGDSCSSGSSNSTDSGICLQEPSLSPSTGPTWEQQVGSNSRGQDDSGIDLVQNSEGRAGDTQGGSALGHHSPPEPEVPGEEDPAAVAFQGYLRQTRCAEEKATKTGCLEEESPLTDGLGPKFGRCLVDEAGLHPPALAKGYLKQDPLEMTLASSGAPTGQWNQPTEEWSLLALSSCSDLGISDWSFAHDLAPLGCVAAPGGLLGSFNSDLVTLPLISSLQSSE

cyno IL10R1 = target: T2, cyno IL10R1 (cyno, UniProt A0A2K5WJ66 22-576); experiment: FACS on CHO/cyno IL10R1 cells
T2 construct: whole, on cells; also called CHO/cyno IL10R1; monkey IL10R1
T2 sequence: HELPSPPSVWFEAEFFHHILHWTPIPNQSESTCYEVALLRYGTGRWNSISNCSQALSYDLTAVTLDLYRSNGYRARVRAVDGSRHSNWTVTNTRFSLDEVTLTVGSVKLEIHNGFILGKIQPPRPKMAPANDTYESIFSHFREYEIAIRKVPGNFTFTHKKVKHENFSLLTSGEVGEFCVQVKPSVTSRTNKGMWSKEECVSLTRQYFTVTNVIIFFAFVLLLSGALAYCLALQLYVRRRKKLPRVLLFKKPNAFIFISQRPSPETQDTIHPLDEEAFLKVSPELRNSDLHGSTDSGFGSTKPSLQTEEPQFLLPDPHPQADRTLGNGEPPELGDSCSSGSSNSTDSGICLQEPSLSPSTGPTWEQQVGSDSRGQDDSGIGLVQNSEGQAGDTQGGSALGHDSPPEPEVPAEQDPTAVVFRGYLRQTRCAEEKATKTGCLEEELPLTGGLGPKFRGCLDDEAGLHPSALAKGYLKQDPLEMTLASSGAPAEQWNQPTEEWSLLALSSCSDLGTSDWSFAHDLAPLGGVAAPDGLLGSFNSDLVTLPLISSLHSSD

human IL10R1 = target: T3, human IL10R1 (human, UniProt Q13651 22-578); experiment: FACS on CHO/human IL10R1 cells
T3 construct: whole, on cells; also called CHO/human IL10R1
T3 sequence (looked up): T1 sequence (looked up)

mouse IL10R1 = target: T4, mouse IL10R1 (mouse, UniProt Q61727 17-575); experiment: FACS on CHO/mouse IL10R1 cells
T4 construct: whole, on cells; also called CHO/mouse IL10R1
T4 sequence (looked up): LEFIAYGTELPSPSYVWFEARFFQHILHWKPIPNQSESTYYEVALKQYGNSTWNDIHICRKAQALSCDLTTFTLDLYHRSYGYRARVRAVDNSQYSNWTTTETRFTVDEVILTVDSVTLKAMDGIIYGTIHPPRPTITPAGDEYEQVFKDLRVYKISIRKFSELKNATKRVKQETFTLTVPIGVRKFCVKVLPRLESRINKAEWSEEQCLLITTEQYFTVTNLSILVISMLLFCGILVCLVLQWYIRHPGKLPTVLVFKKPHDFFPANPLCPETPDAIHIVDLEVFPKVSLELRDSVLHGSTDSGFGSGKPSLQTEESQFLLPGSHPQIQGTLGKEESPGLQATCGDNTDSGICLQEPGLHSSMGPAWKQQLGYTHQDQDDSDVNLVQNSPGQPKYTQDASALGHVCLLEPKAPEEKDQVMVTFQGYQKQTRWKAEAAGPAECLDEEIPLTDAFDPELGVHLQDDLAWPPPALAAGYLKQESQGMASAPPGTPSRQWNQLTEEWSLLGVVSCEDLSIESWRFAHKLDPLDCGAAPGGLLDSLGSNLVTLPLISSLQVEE

B1: R1187: ISO-hIgG1.8-IL10M (other)
heavy: QVQLVESGGGVVQPGRSLRLSCAASGFTFSSYGMHWVRQAPGKGLEWVAAIWYDGSNKYYTDSVKGRFTISRDNSKNTLYLQMNSLRAEDTAVYYCARDLRGVMYFDLWGRGTLVTVSSASTKGPSVFPLAPSSKSTSGGTAALGCLVKDYFPEPVTVSWNSGALTSGVHTFPAVLQSSGLYSLSSVVTVPSSSLGTQTYICNVNHKPSNTKVDKRV[left out - human IgG1 Fc with changes]
light: EIVLTQSPATLSLSPGERATLSCRASQSVSRYLAWYQQKPGQAPRLLIYDASNRATGIPARFSGSGSGTDFTLTISSLEPEDFAVYYCQLRNNWPLTFGGGTKVEIKRTVAAPSVFIFPPSDEQLKSGTASVVCLLNNFYPREAKVQWKVDNALQSGNSQESVTEQDSKDSTYSLSSTLTLSKADYEKHKVYACEVTHQGLSSPVTKSFNRGECGGGGSGGGGSGGGGSGGGGSGGQGTQSENSCTHFPGNLPNMLRDLRDAFSRVKTFFQMKDQLDNLLLKESLLEDFKGYLGCQALSEMIQFYLEEVMPQAENQDPDIKAHVNSLGENLKTLRLRLRRCHRFLPCENGGGSGGKSKAVEQVKNAFNKLQEKGIYKAMSEFDIFINYIEAYMTMKIRN
notes: Isotype antibody fused with modified IL10 (IL10M); also called control antibody R1187
- EC50 of luciferase reporter gene activity on H_IL10 Reporter 293 Cell Line, enriched (with CHO/human PD-1 cells) [1]: 4.92 nM
- EC50 of luciferase reporter gene activity on H_IL10 Reporter 293 Cell Line, non-enriched [1]: 4.54 nM
- EC50 (cyno IL10R1): 4.25 nM
- EC50 (human IL10R1): 8.51 nM
- EC50 (mouse IL10R1): 2.14 nM

B2: R3361: ISO-hIgG1.8-wtIL10 (other)
heavy: QVQLVESGGGVVQPGRSLRLSCAASGFTFSSYGMHWVRQAPGKGLEWVAAIWYDGSNKYYTDSVKGRFTISRDNSKNTLYLQMNSLRAEDTAVYYCARDLRGVMYFDLWGRGTLVTVSSASTKGPSVFPLAPSSKSTSGGTAALGCLVKDYFPEPVTVSWNSGALTSGVHTFPAVLQSSGLYSLSSVVTVPSSSLGTQTYICNVNHKPSNTKVDKRV[left out - human IgG1 Fc with changes]AGGGGSGGGGSGGGGSGGGGSGSPGQGTQSENSCTHFPGNLPNMLRDLRDAFSRVKTFFQMKDQLDNLLLKESLLEDFKGYLGCQALSEMIQFYLEEVMPQAENQDPDIKAHVNSLGENLKTLRLRLRRCHRFLPCENKSKAVEQVKNAFNKLQEKGIYKAMSEFDIFINYIEAYMTMKIRN
light: EIVLTQSPATLSLSPGERATLSCRASQSVSRYLAWYQQKPGQAPRLLIYDASNRATGIPARFSGSGSGTDFTLTISSLEPEDFAVYYCQLRNNWPLTFGGGTKVEIKRTVAAPSVFIFPPSDEQLKSGTASVVCLLNNFYPREAKVQWKVDNALQSGNSQESVTEQDSKDSTYSLSSTLTLSKADYEKHKVYACEVTHQGLSSPVTKSFNRGEC
notes: Isotype antibody fused with wild-type IL10; also called wild-type IL10 control R3361
- EC50 of luciferase reporter gene activity on H_IL10 Reporter 293 Cell Line, enriched (with CHO/human PD-1 cells) [1]: 2.92 nM
- EC50 of luciferase reporter gene activity on H_IL10 Reporter 293 Cell Line, non-enriched [1]: 2.81 nM
- EC50 (cyno IL10R1): 5.03 nM
- EC50 (human IL10R1): 8.66 nM
- EC50 (mouse IL10R1): 2.46 nM
